This is one part of the list. At the low end of the ranking, values are background and their order means little. The protein was read in a cell extract, so binding may be indirect.

This assay deals with T1, HNF4alpha2 (COS-7 nuclear extract) (UniProt P41235).
T1 sequence: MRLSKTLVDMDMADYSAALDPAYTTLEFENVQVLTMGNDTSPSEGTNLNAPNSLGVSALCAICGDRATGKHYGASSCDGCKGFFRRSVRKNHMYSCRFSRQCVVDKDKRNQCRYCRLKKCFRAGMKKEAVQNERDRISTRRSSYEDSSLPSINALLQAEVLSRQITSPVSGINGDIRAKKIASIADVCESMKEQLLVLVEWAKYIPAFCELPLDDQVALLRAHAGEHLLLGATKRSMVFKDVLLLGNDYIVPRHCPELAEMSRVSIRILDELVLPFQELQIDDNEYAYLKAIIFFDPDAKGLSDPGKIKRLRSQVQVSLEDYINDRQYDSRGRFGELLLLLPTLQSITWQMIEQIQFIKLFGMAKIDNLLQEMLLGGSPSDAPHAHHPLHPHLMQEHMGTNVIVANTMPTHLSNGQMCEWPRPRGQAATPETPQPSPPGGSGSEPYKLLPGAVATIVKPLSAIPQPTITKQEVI
Nature of the assay: protein-binding microarray. The following applies: COS-7 nuclear extract on double-stranded Agilent 4x180k PBM; binding buffer, salt, pH and temperature not given; high values mean tight binding; double strand, one strand shown; sequences stand for … in …GCCTAGGGAGATTAGAGTATCGGTCGA
Turning to TTCAATGCTCCAGTAAAAGCTCTACCTGAC, the binding signal (log2 normalized intensity) was -1.11. The value for AGACAGCTGCATTTGTCCGGGTATGTTCTT was 1.39; that for GTCCCTGCTCCACGCAAACACAAAAGGATC was -1.2. Turning to ATGACCTTTGAGCAATAGGAAATGGGAGGG, the binding signal (log2 normalized intensity) amounted to 2.34. The value for GGTCTAATTCCCAAGGGTATGTTTGTGATA was 1.94.

Regarding TCAGAGCCTGGCTGGCCTGGCAAATCTCTA, the binding signal (log2 normalized intensity) was -0.989. The value for TTTTTAGTGCAAGCAAAATTCCTGGGTTGC was -0.67; that for GTGTGGGACTTGAGGTCTTATCTTTAGGCC was 1.03. The value for GACTCTGCAGCCGAACCGGCACGGTTTCGT was -1.03; that for CCCTGCAGTCCTCTGCTTATCTGGCCTGCT was -0.935; that for CTCTTTGGTGCAAAGGTCAGGACAAGGCTC was 4.3. As for TCCACTGTGCAGTGGGCCTTTAGAAGTGTA, the binding signal (log2 normalized intensity) turned out to be 0.627. The value for GGAATCTTGCCCTGTCGCCCAGGCTGGAAT was 1.09; that for AACTGGAAAATCAAAGACTCAGATGAGTTT was -1.12. For TATTCCAGGCACAAGAATGGTCATTCTCTG, the binding signal (log2 normalized intensity) is -0.977. The value for AATACTCCAGTCATTGTACAAACACATACC was 0.393; that for GACCAAAAGATATTTGCTGCTGACATCTCA was -1.1; that for TCGTAGGCAGGGCCAGATAAAGCAGGTTGT was 0.444. As for TTGGACTTTGTACATTCCAAATACGATAAT, the binding signal (log2 normalized intensity) is 5.36. As to TCCTGGTTGGCAAACAAAAAGCTCTGCCTA, the binding signal (log2 normalized intensity) is -1.14.

As to TTTGCTTTCTTGGAGGTTAACATTTGACAA, the binding signal (log2 normalized intensity) is 1.47. The value for AGGAAAACGGAGACAGAAACTGTTTCCAAT was -1.01. The value for AGGCCAGCTCATAGGGATCAGATAAGAAGT was -0.997. Take GGCAAAACTGTCACAAGAAAGGCAGAAAAC: the binding signal (log2 normalized intensity) is -1.19. With AAAGATGGGGATATAATCATTCATGGGCCA, the binding signal (log2 normalized intensity) worked out at 1.11. For the sequence GCAGAAGGCAACAGCTCTGGAGGATTTGGG, the binding signal (log2 normalized intensity) was -1.05. The value for AACGGAGACAGAAACTGTTTCCAATAGGTT was -0.896; that for GCTCAATCAAGGACTGGGCTGGAACACAAA was -1.13. The value for TAAGCCTCTGACTGTTGCATCAAACAGCTT was -1.16. As to GACTCTAGATTGTTTGTTCTTGCTACCTAC, the binding signal (log2 normalized intensity) is -0.856. On to ATGACACAGAGTGGAAAATAAATATTTGTT, for which the binding signal (log2 normalized intensity) is -0.533. Turning to ACTAGACTGCCTCTTACAACGAGGTGCCAG, the binding signal (log2 normalized intensity) is -1.1.

As to AAGGTCTCAAGGCCTTGGCTTGGAACTGAC, the binding signal (log2 normalized intensity) is -0.441.

On to CATTAAAACAACCCAGAGAATGCTAGACAA, for which the binding signal (log2 normalized intensity) was -1.11.

On to TGGTGACCAGACTACCTCTTTAGGCTGGAC, for which the binding signal (log2 normalized intensity) was -0.684.

For ACCTGCCCTGAGTCCAGCCTTCCTGTTCAA, the binding signal (log2 normalized intensity) is -0.214.

Take CTCATTTATGGAGGAATTTGGACTTTTACT: the binding signal (log2 normalized intensity) amounted to 4.47.

In the case of AAGCCCTTCTTCTGGAGCCTCAGTAAGTTT, the binding signal (log2 normalized intensity) amounted to 0.629. CAGGAGACGTAGAGATAAGGTCTTCTACAG: the binding signal (log2 normalized intensity) was -1.16. As for TGGTCACTTGTAAGATACTGAAATGCCAAA, the binding signal (log2 normalized intensity) was -0.952.

(Values after article PMC10726135.)
